# Tested on: pro-trypsin-like F. oxysporum protease
# Experiment: Processing of pro-trypsin-like F. oxysporum protease to active trypsin-like protease
# Conditions: pro-trypsin-like protease 100 ug/ml; within 1 hr.
# Procedure: Activatable pro-trypsin-like F. oxysporum protease is determined in microtiter wells as released trypsin-like F. oxysporum protease (tryptic) activity from pro-trypsin-like F. oxysporum protease after a 40 minute pre-incubation at room temperature with purified Fusarium oxysporum metalloprotease (approximately 6 ug).
# Processed pro-trypsin-like F. oxysporum protease(i.e. mature trypsin-like F. oxysporum protease) activity is determined directly from microtiter plates containing the pre-incubated metalloprotease/pro-trypsin-like F. oxysporum protease cocktail (total volume=100 microliters), and 100 microliters of substrate (87 mg/ml.L-BAPNA stock in DMSO diluted 50-fold in sample buffer). Again, active trypsin-like F. oxysporum protease is determined as an increase in absorbance at 405 nm immediately after L-BAPNA addition.
# Purified pro-trypsin-like F. oxysporum protease is added to fresh A. oryzae fermentation broths containing the recombinant p45 metalloprotease (approximately 90 mg/L) and incubated for either 1, 2, or 3 hours at room temperature. Levels of pro-trypsin-like F. oxysporum protease in the incubation mixtures range from 100 ug/ml to 13 mg/ml. Therefore, under these conditions, the recombinant p45 metalloprotease can easily process 80-100% of the activatable pro-trypsin-like F. oxysporum protease within a 1 hour time period. […]
molecule,measurement,value
"B.s. Thermolysin: thermolysin / neutral metalloprotease from Bacillus stearothermophilus (B.s.) (protein, UniProt P43133 236-551, looked up) Thermolysin: ITGTSTVGVGRGVLGDQKNINTTYSTYYYLQDNTRGNGIFTYDAKYRTTLPGSLWADADNQFFASYDAPAVDAHYYAGVTYDYYKNVHNRLSYDGNNAAIRSSVHYSQGYNNAFWNGSQMVYGDGDGQTFIPLSGGIDVVAHELTHAVTDYTAGLIYQNESGAINEAISDIFGTLVEFYANKNPDWEIGEDVYTPGISGDSLRSMSDPAKYGDPDHYSKRYTGTQDNGGVHINSGIINKAAYLISQGGTHYGVSVVGIGRDKLGKIFYRALTQYLTPTSNFSQLRAAAVQSATDLYGSTSQEVASVKQAFDAVGVK",moles of pro-trypsin-like protease processed per mole of metalloprotease,one mole of the B.s. metalloprotease is required to process one mole of pro-trypsin-like F. oxysporum protease

# Reference: US5807729A, “Metalloprotease having increased activity” (Novo Nordisk A/S, priority 1995, dated 1998)
